# Tested on: klotho^hm mice
# Details: treatment in drinking water, versus untreated
structure (smiles),measurement,value
CC(=O)Nc1nnc(S(N)(=O)=O)s1 [acetazolamide],lifespan,clear extension of the lifetime

# From patent US20160346320A1, “SUBSTANCE FOR INHIBITING TISSUE CALCIFICATION, TISSUE FIBROSATION AND AGE-RELATED DISEASES” (Fresenius Kabi Deutschland GmbH, priority 2013, published 2016)
